Where a chain is given by its changes, count along the chain named. No constants are given. Whether binding was seen depends on the method and setting. Some binding calls cover weakened binding; strength is not graded here.

The values that follow come from patent US20140056902A1.

Assay [1] has as its target T1, chimeric protein 3 of human BMP9/10 region C (human) (UniProt Q9UK05).
T1 sequence 1: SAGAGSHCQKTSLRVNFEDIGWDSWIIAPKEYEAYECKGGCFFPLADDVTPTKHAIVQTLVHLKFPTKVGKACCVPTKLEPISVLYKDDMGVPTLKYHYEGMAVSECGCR
T1 sequence 2: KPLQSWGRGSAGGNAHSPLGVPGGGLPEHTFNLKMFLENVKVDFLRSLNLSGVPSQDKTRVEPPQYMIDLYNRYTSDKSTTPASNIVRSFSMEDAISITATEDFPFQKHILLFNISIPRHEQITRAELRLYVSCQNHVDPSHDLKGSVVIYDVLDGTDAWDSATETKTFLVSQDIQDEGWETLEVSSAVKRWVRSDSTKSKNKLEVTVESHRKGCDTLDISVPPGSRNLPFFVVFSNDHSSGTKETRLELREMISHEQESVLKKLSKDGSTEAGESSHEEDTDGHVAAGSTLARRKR
Description: antigen-immobilized ELISA. Background: In an ELISA, binding on a coated surface is turned into a signal by an enzyme label.

Assay [2] deals with T1, chimeric protein 3 of human BMP9/10 region C (human). Description: antigen-immobilized ELISA, antigen coated at 3 ug/mL, antibody 1000 ng/mL; + = absorbance of 1 or more.
Assay [3] deals with human BMP9 recombinant protein prepared according to Example 12 of WO 2010/126169 (N-terminal His-tagged hBMP9 complex, pLN1V5_human BMP9 vector) (human) (UniProt Q9UK05). The description is as above.
Assay [4] has the same target. Description: competition ELISA against biotin-labeled R&D antibody; inhibitory at a lower concentration than R&D antibody.
The target in assay [5] is T2, chimeric protein 2 of human BMP9/10 region C (human) (UniProt Q9UK05).
T2 sequence 1: T1 sequence 1 with E80S, V84I, L95Y, Y97F, H98K, A103S, S105A
T2 sequence 2: T1 sequence 2
Description: condition: absorbance of less than 1 at 1000 ng/mL antibody; antigen-immobilized ELISA, antigen coated at 3 ug/mL.

Assay [6] addresses chimeric protein 5 of human BMP9/10 region C (human) (UniProt Q9UK05). The assay is described as above.
For assay [7], the target named is human BMP9 recombinant protein prepared according to Example 12 of WO 2010/126169 (N-terminal His-tagged hBMP9 complex, pLN1V5_human BMP9 vector) (human) (UniProt Q9UK05). Description: blocking ELISA on immobilized human BMP9 (3 ug/mL coat): antibody at 1000 ng/mL with 3 ug/mL BMPRII-Fc, bound Fc detected, inhibitory activity (%).
Assay [8] shares this target. Description: competition ELISA on immobilized human BMP9: unlabeled antibody against 50 ng/mL biotin-labeled R&D antibody, inhibitory activity (%); unit ng/mL from the legend.

B1: 6D10-1-1 antibody (antibody, mouse IgG1, V domains shown)
VH: QVQLQQSGAELVRPGTSVKVSCKASGYAFTNYLMEWIKQRPGQGLEWIGVIHPGIGVTNYNEKFKGKATLTADISSSTAYMQLSSLTSEDSAVYFCARRANWDLYYFDYWGQGTTLTVSS
VL: DIQMTQITSSLSASLGDRVTISCSASQDISNYLNWYQQKPDGTVKLLIYYTSSLHSEVPSRFSGSGSGTDYSLTISNLEPEDIATYYCQQYINLPLTFGAGTKLELKR
For the molecule B1, the binding result in assay [1] is recorded as “binds”; in assay [2] it was “binds”; in assay [3], “binds”; in assay [4], “binds”; in assay [5], “no binding”; in assay [6], “no binding”. For the same molecule, the binding result in assay [7] and in assay [8] was “binds” each time.
